Test results as given in paper PMC5862874.
Results are given in words; binding and its absence hold for the method and conditions named. For part of these data: Binding seen in cells or lysates may run through a third protein. Some results given as binding are weak or reduced against the parent protein; the word gives no strength. For part of these data: Tags and fused reporters may be left off the sequences shown.

T1: FLAG-DJ-1 (wild type) (human), Q99497
T1 chain: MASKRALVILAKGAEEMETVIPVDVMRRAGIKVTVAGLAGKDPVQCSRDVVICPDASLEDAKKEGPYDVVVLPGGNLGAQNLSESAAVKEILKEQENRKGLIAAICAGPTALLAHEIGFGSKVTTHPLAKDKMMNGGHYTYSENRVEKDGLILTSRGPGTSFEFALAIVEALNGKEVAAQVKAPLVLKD

T2: FLAG-DJ-1 L166P (human), Q99497
T2 chain: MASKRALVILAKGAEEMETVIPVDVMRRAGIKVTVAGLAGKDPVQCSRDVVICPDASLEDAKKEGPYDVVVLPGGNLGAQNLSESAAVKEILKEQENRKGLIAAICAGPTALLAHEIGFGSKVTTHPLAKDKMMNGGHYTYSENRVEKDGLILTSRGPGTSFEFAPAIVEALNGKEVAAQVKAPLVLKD

T3: DJ-1 (wild type), yeast two-hybrid fusion (human), Q99497
T3 chain: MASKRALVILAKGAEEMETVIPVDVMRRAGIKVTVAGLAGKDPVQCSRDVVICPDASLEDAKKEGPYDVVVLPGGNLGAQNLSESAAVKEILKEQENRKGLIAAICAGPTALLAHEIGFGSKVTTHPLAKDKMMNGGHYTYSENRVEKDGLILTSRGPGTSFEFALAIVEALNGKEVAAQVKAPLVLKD

T4: DJ-1 L166P, yeast two-hybrid fusion (human), Q99497
T4 chain: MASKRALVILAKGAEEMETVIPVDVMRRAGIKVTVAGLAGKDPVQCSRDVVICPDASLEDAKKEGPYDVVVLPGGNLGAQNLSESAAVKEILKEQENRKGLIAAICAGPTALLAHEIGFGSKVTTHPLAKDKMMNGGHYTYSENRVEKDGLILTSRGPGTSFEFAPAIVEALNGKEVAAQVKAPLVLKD


Columns and labels:
[1] = molecular target: DJ-1 (wild type), yeast two-hybrid fusion (human) (UniProt Q99497); assay: two-hybrid; screens of human substantia nigra and human frontal cortex cDNA libraries with pGLex-DJ-1 as bait
[2] = molecular target: DJ-1 (wild type), yeast two-hybrid fusion (human) (UniProt Q99497); assay: two-hybrid; S. cerevisiae L40; bait pGLex-DJ-1 (LexA DNA-binding domain, wt or mutant) with a GAL4 AD prey plasmid; colonies on medium lacking leucine and tryptophan tested for beta-galactosidase activity by LacZ freeze-fracture filter assay
[3] = molecular target: DJ-1 A104T, yeast two-hybrid fusion (human) (UniProt Q99497); assay: as above
[4] = molecular target: DJ-1 D149A, yeast two-hybrid fusion (human) (UniProt Q99497); assay: as above
[5] = molecular target: DJ-1 E163K, yeast two-hybrid fusion (human) (UniProt Q99497); assay: as above
[6] = molecular target: DJ-1 E64D, yeast two-hybrid fusion (human) (UniProt Q99497); assay: as above
[7] = molecular target: DJ-1 K130R, yeast two-hybrid fusion (human) (UniProt Q99497); assay: as above
[8] = molecular target: DJ-1 L166P, yeast two-hybrid fusion (human) (UniProt Q99497); assay: as above
[9] = molecular target: DJ-1 M26I, yeast two-hybrid fusion (human) (UniProt Q99497); assay: as above
[10] = molecular target: DJ-1 R98Q, yeast two-hybrid fusion (human) (UniProt Q99497); assay: as above
[11] = molecular target: T1, FLAG-DJ-1 (wild type) (human), Q99497; assay: co-IP; HEK293T cells co-transfected with FLAG-DJ-1 (wt or mutant) and myc-DJBP; 1% Nonidet P-40 lysates incubated with anti-FLAG agarose 2 h at 4°C, eluted with FLAG peptide, Western blot (anti-FLAG, anti-c-myc, anti-DJ-1); details: remark: other sources report otherwise
[12] = molecular target: T2, FLAG-DJ-1 L166P (human), Q99497; assay: as above; details: remark: other sources report otherwise
[13] = molecular target: T3, DJ-1 (wild type), yeast two-hybrid …; assay: two-hybrid; S. cerevisiae L40; bait pGLex-DJ-1 (LexA DNA-binding domain, wt or mutant) with a GAL4 AD prey plasmid; colonies on medium lacking leucine and tryptophan tested for beta-galactosidase activity by LacZ freeze-fracture filter assay; details: remark: other sources report otherwise
[14] = molecular target: T4, DJ-1 L166P, yeast two-hybrid fusion …; assay: as above; details: remark: other sources report otherwise

binding [1]	binding [2]	binding [3]	binding [4]	binding [5]	binding [6]	binding [7]	binding [8]	binding [9]	binding [10]	binding [11]	binding [12]	binding [13]	binding [14]	Binder
binds	binds	binds	binds	binds	binds	binds	no binding	binds	binds	–	–	–	–	homeodomain-interacting protein kinase 2 (HIPK2 isoform 2) amino acids 818-884, yeast two-hybrid prey (domain or fragment, UniProt Q9H2X6-3 818-884) VHSSPACSTSVTCGWGDVASSTTRERQRQTIVIPDTPSPTVSVITISSDTDEEEEQKHAPTSTVSKQ
binds	binds	binds	binds	binds	binds	binds	no binding	binds	binds	–	–	–	–	SIMC1 (SUMO interacting motifs containing 1) amino acids 1-245, yeast two-hybrid prey (domain or fragment, UniProt Q8NDZ2 1-245) MAPASASGEDLRKLPTMAEVNGEQDFIDLTRETRPRTKDRSGLYVIDLTRAEGENRPIATLDLTLEPVTPSQKEPTSLQTCASLSGKAVMEGHVDRSSQPTARRIINSDPVDLDLVEENTFVGPPPATSISGGSVYPTEPNCSSATFTGNLSFLASLQLSSDVSSLSPTSNNSRSSSSSSNQKAPLPCPQQDVSRPPQALPCPLRPLPCPPRASPCPPRASSCPPRALSCPSQTMQCQLPALTHP
–	–	–	–	–	–	–	–	–	–	binds	binds	–	–	DJ-1 co-purified with FLAG-DJ-1 from HEK293T lysates, Q99497 1-189 (protein) MASKRALVILAKGAEEMETVIPVDVMRRAGIKVTVAGLAGKDPVQCSRDVVICPDASLEDAKKEGPYDVVVLPGGNLGAQNLSESAAVKEILKEQENRKGLIAAICAGPTALLAHEIGFGSKVTTHPLAKDKMMNGGHYTYSENRVEKDGLILTSRGPGTSFEFALAIVEALNGKEVAAQVKAPLVLKD
–	–	–	–	–	–	–	–	–	–	–	–	binds	no binding	DJ-1 L166P, yeast two-hybrid fusion, Q99497 1-189 (protein) MASKRALVILAKGAEEMETVIPVDVMRRAGIKVTVAGLAGKDPVQCSRDVVICPDASLEDAKKEGPYDVVVLPGGNLGAQNLSESAAVKEILKEQENRKGLIAAICAGPTALLAHEIGFGSKVTTHPLAKDKMMNGGHYTYSENRVEKDGLILTSRGPGTSFEFAPAIVEALNGKEVAAQVKAPLVLKD
